Laboratory results: patent US20210171576A1, “METHODS FOR TREATING CANCER WITH ACYLDEPSIPEPTIDE ANALOGS” (priority 2018, published 2021)

Tests used:
[1] = tested on: HEK293 T-REx ΔCLPX* cells; test: Cytotoxicity, SRB staining, CLPX-disrupted cells; details: HsCIpX expression reduced by ≥97%
[2] = target: T1, human mitochondrial CIpP (HsCIpP) (Homo sapiens, UniProt Q16740); test: Screen of ADEP analogs against HsCIpP: relative degradation (RD) index, casein-FITC degradation relative to E. coli CIpAP; assay type: biochemical; parameters: key: casein-FITC degradation by HsClpP relative to EcClpAP; details: for Hs RD1: RD value at 1 μM of the ADEP analog; for Hs RD5: RD value at 5 μM of the ADEP analog; for Hs RD25: RD value at 25 μM of the ADEP analog, measure of ability to activate HsCIpP
T1 construct: made in house; host or cells: E. coli SG1146 (BL21(DE3) ΔclpP::cat)
T1 sequence (Q16740 57-277): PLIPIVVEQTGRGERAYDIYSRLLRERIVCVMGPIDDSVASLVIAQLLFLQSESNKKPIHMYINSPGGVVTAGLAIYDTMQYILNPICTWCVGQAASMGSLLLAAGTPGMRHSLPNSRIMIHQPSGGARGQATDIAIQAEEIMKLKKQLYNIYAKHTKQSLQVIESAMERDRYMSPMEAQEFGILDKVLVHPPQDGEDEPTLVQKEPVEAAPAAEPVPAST
Text: Structural analogs of acyldepsipeptide (ADEP) (Goodreid et al., 2016) that were previously developed as potential antibiotics against bacterial CIpP were screened and assessed for their ability to activate and dysregulate the protease activity of HsCIpP, by measuring their relative degradation (RD) index. Note that ADEP-28 was also previously reported by Carney et al. (2014). Details of the experimental protocol have been described in Leung et al., 2011. The RD index is defined as follows: […]
Δφ is the change in fluorescence after 6 hr of starting the reaction measured using 485 nm excitation and 535 nm emission, which primarily detects the signal from casein-FITC. E. coli CIpAP was used as a benchmark for maximum CIpP proteolytic activity. The CIpP in the numerator can be from any other organism. RD25 measurements refer to the measurement in the presence of 25 μM compound. All ADEP analogs were first screened at 25 μM, and their RD25 scores were calculated using the above formula and method as described in Leung et al., 2011 (FIG. 1A). Those that achieved RD25≥0.87 were screened a second time at 5 μM, followed by calculation of their RD5 scores. The top analogs with RD5≥0.74 were screened a third time at 1 μM, followed by calculation of their RD1 scores (FIG. 1B).
To identify ADEP analogs that allow HsCIpP to degrade folded proteins independent of HsCIpX+ATP (i.e., that activate or dysregulate HsCIpP), the inventors employed the in vitro screening method that was used for identifying small molecule activators of Escherichia coli CIpP (EcCIpP) (Leung et al., 2011). In this approach, the ability of HsCIpP to degrade FITC-labeled casein (casein-FITC) was measured and compared to the ability of EcCIpAP to degrade casein-FITC. This is quantitatively expressed as relative degradation (RD) index (Leung et al., 2011).

HEK293 T-REx WT cells [3] = test: Cellular respiration analysis (Seahorse XF, OXPHOS); assay type: cell-based, human; details: 1 μM, 24 hours, relative to DMSO-treated WT cells
HsCIpP = target: T2, HsCIpP (Homo sapiens, UniProt Q16740, P57S); test: Protease activity assay (casein-FITC degradation) with ADEP, independent of HsCIpX; assay type: biochemical; details: 3 μM HsCIpP
T2 construct: 2x(His6-thrombin)-SUMO (N, cleaved yes); made in house; host or cells: E. coli (SG1146 stated for HsClpP; 'a similar protocol' for HsClpX)
T2 sequence (Q16740 57-277 P57S): as the sequence (Q16740 57-277) above, with P1S counted along it
Method: The protease activity of purified HsCIpP was assessed by monitoring the degradation of bovine milk casein labelled with fluorescein isothiocyanate (casein-FITC) (Sigma-Aldrich) in the presence of ADEP and/or purified HsCIpX. All reactions were carried out in 25 mM HEPES, pH 7.5, 35 mM KCl, 25 mM MgCl2, 0.03% Tween-20, 10% glycerol, and 1 mM DTT, supplemented with 16 mM creatine phosphate and 300 μM ATP. HsCIpP was used at 3 μM (final monomeric concentration) and casein-FITC was added at the final concentration of 10 μM. 13 U of creatine phosphokinase (Sigma-Aldrich) was also added for ATP regeneration. DMSO was present at 1% (v:v) final concentration in the experiments that involve the use of ADEP analogs. All reactions were carried out with 150 μL of the reaction mix per well in a 96-well black flat-bottom plate at 37° C. Degradation of casein-FITC and subsequent release of the free FITC moiety was monitored by fluorescence with λex=494 nm and λem=518 nm using the EnSpire 2300 Multilabel Reader set to perform a reading every 40 s with 20 flashes. A total of 100 readings were collected in each experiment. […]
The effect of ADEP in activating HsCIpP was assessed via the degradation of casein-FITC by HsCIpP independent of HsCIpX. […] Initial rates data were collected and analyzed using the Hill equation above to determine Vmax, h and K0.5 for each ADEP analog. […]

HEK293 T-REx WT cells [4] = test: Cytotoxicity, SRB staining, 72 hours; assay type: cell-based, human
MDA-MB-231 CLPP-KD cells [5] = test: Cytotoxicity test, SRB staining, 72 hours; assay type: cell-based, human
MCF-7 cells = test: Cytotoxicity test, SRB staining, 72 hours; assay type: cell-based, human; details: MCF-7, 72 hours
MDA-MB-468 cells = test: Cytotoxicity test, SRB staining, 72 hours; assay type: cell-based, human; details: MDA-MB-468, 72 hours
MDA-MB-231 CLPP-KD cells [6] = test: Scratch wound healing assay; assay type: cell-based, human; details: 100-500 nM, 48 hours, serum-free
MDA-MB-231 WT cells [7] = test: Scratch wound healing assay; assay type: cell-based, human; details: 100-500 nM, 48 hours, serum-free
[8] = tested on: HEK293 T-REx CLPP^−/− cells; test: Cytotoxicity, SRB staining, 72 hours; details: estimated by visual examination
MDA-MB-231 WT cells [9] = test: Cytotoxicity test, SRB staining, 72 hours; assay type: cell-based, human; details: MDA-MB-231, 72 hours

**Q.** With `CCCC/C=C/C(=O)N[C@@H](Cc1cc(F)cc(F)c1)C(=O)N[C@@H]1C(=O)N2CCC[C@H]2C(=O)N2CC[C@H](C)C[C@H]2C(=O)N[C@@H](C)C(=O)N2CCC[C@H]2C(=O)O[C@H]1C` [ADEP-28] ({Heptenoyl(2E)}-[Phe(3,5-F2)][aThr]P[Pip(4S-Me)]AP; ester 2-C) as the compound, how does the “impact of reduced HsCIpX levels on sensitivity” value [1] read?
**A.** no statistically significant impact

**Q.** And the “Hs RD1” value [2]?
**A.** 0.82

**Q.** What about the “Hs RD5” value [2] of the same compound?
**A.** 0.93

**Q.** What about the “Hs RD25” value [2] of the same compound?
**A.** 0.95

**Q.** And the “reduction in oxygen consumption rate (OCR) associated with ATP synthase activity” value (HEK293 T-REx WT cells [3])?
**A.** ~91%

**Q.** And the “reduction in oxygen consumption rate (OCR) associated with basal respiration” value (HEK293 T-REx WT cells [3])?
**A.** ~86%

**Q.** And the Kd (HsCIpP; 10 μM casein-FITC, no HsCIpX, read-out: K0.5 (microscopic apparent dissociation constant), protease activity)?
**A.** 0.12 µM

**Q.** What about the “Hill coefficient, protease activity” value (HsCIpP; casein-FITC, among five ADEP analogs) of the same compound?
**A.** highest Hill coefficient

**Q.** With `CCC/C=C/C=C/C(=O)N[C@@H](Cc1cc(F)cc(F)c1)C(=O)N[C@@H]1C(=O)N2CCC[C@H]2C(=O)N2CCCC[C@H]2C(=O)N[C@@H](C)C(=O)N2C[C@H](C)C[C@H]2C(=O)O[C@H]1C` [ADEP-14] (X1-[Phe(3,5-F2)][aThr]P[Pip]A[Pro(4R-Me)]; ester 2-C) as the compound, how does the IC50 (HEK293 T-REx WT cells [4]) read?
**A.** 1.01 ± 0.05 µM

**Q.** What about the “lower response to induced cytotoxicity compared to MDA-MB-231 WT” value (MDA-MB-231 CLPP-KD cells [5]; MDA-MB-231 CLPP-KD vs WT) of the same compound?
**A.** 10 ×

**Q.** What about the IC50 (MDA-MB-231 CLPP-KD cells [5]; MDA-MB-231 CLPP-KD, 72 hours, estimated by visual examination) of the same compound?
**A.** > 10 µM

**Q.** What about the IC50 (MCF-7 cells) of the same compound?
**A.** 1.6 ± 0.2 µM

**Q.** What about the “Hs RD1” value [2] of the same compound?
**A.** 0.79

**Q.** And the “Hs RD5” value [2]?
**A.** 0.92

**Q.** What about the “Hs RD25” value [2] of the same compound?
**A.** 1.00

**Q.** What about the IC50 (MDA-MB-468 cells) of the same compound?
**A.** 0.95 ± 0.06 µM

**Q.** And the “2D cell migration (scratch wound closure)” value (MDA-MB-231 CLPP-KD cells [6])?
**A.** unaffected

**Q.** What about the “2D cell migration (scratch wound closure)” value (MDA-MB-231 WT cells [7]) of the same compound?
**A.** impaired 2D migration

**Q.** And the IC50 [8]?
**A.** > 10 µM

**Q.** Which IC50 (MDA-MB-231 WT cells [9]) does the source give for `CO[C@@]12[C@H](COC(N)=O)C3=C(C(=O)C(C)=C(N)C3=O)N1C[C@@H]1N[C@@H]12` [Mitomycin-C, reference compound] here?
**A.** 0.8 ± 0.2 µM

**Q.** What about the IC50 (MCF-7 cells) of the same compound?
**A.** 0.4 ± 0.2 µM

**Q.** And the IC50 (MDA-MB-468 cells)?
**A.** 1.5 ± 0.4 µM

Where a SMILES comes first, the peptide text is derived from it. Bridges are numbered along the chain shown (N, C = ends). [ ]: non-standard residue; d: D form. The star is where a group is joined. Phe(3,5-F2) = N[C@@H](Cc1cc(F)cc(F)c1)C(=O)O; Pip(4S-Me) = C[C@H]1CCN[C@H](C(=O)O)C1; Pro(4R-Me) = C[C@H]1CN[C@H](C(=O)O)C1; Heptenoyl(2E) = CCCC/C=C/C(=O)*; aThr = C[C@H](O)[C@H](N)C(=O)O; Pip = O=C(O)[C@@H]1CCCCN1; X1 = CCC/C=C/C=C/C(=O)*
